Measurements: the supplement of paper PMC10126150
Values marked as one replicate rest on one cluster of the flow cell; about a third of the high ones do not repeat.

test system: ATP; assay: switch fluorescence ratio, 500 uM ATP over buffer (Cy3 cluster intensity, sum of 5 cycles each) (fold (ratio)); higher = stronger signal-on switching upon ATP binding; sequences stand for … in TCGTCGGCAGCGTCAGATGTGTATAAGAGACAGTTTTTTTTTTTTTTTTTTTTTTTTT…TC; conditions: aptamer strand: ATP DNA aptamer (quencher-CACCTGGGGGAGTATTGCGGAGGAAGG + anchor), 100 nM annealed; ATP concentration: 500 uM; one replicate
In short: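 Switching-strand clusters labelled with Cy3 on a modified Illumina MiSeq flow-cell were annealed to 100 nM quencher-labelled ATP aptamer, imaged in selection buffer, and re-imaged after 15 min with 500 uM ATP at 22 °C. This was done over five cycles with NaOH stripping and re-annealing in between. The fluorescence ratio is summed target-cycle over summed buffer-cycle Cy3 intensity per cluster, averaged per switch-domain sequence, excluding clusters outside 100-1000 RFU.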
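Further: ATP exposure 15 min at 22 °C before imaging.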

**Q.** With TGAGAGCGAA as the sequence, how does the switch fluorescence ratio read?
**A.** 0.998

**Q.** TGAGAGTT was tested. Which switch fluorescence ratio did it give?
**A.** 1

**Q.** TGAGAGTTCG was tested. Which switch fluorescence ratio did it give?
**A.** 0.981

**Q.** With TGAGATGAGC as the sequence, how does the switch fluorescence ratio read?
**A.** 0.994

**Q.** How did the switch fluorescence ratio turn out when TGAGATGG was run?
**A.** 0.952

**Q.** TGAGATGTAA was tested. Which switch fluorescence ratio did it give?
**A.** 0.993

**Q.** TGAGCCCTGT was tested. Which switch fluorescence ratio did it give?
**A.** 0.977

**Q.** With TGAGCGCCGA as the sequence, how does the switch fluorescence ratio read?
**A.** 1.05

**Q.** How did the switch fluorescence ratio turn out when TGAGGACTAT was run?
**A.** 1.02

**Q.** How did the switch fluorescence ratio turn out when TGAGGATCTT was run?
**A.** 1

**Q.** How did the switch fluorescence ratio turn out when TGAGGCAGAC was run?
**A.** 1.38

**Q.** Which switch fluorescence ratio does the source give for TGAGGCATCT here?
**A.** 0.988

**Q.** TGAGGCCAGA was tested. Which switch fluorescence ratio did it give?
**A.** 1.07

**Q.** For TGAGGCGCGA, which switch fluorescence ratio is on record?
**A.** 1.04

**Q.** TGAGGCGCTG was tested. Which switch fluorescence ratio did it give?
**A.** 0.995

**Q.** How did the switch fluorescence ratio turn out when TGAGGGAAGC was run?
**A.** 1.28

**Q.** TGAGGGTCCG was tested. Which switch fluorescence ratio did it give?
**A.** 1.03

**Q.** For TGAGGTACCC, which switch fluorescence ratio is on record?
**A.** 1.02

**Q.** How did the switch fluorescence ratio turn out when TGAGGTACGA was run?
**A.** 1.09

**Q.** With TGAGGTCAAC as the sequence, how does the switch fluorescence ratio read?
**A.** 0.989

**Q.** For TGAGGTTCG, which switch fluorescence ratio is on record?
**A.** 0.95

**Q.** TGAGGTTGT was tested. Which switch fluorescence ratio did it give?
**A.** 0.997

**Q.** For TGAGTAACGT, which switch fluorescence ratio is on record?
**A.** 0.964

**Q.** For TGAGTACTGG, which switch fluorescence ratio is on record?
**A.** 1.01

**Q.** For TGAGTATAG, which switch fluorescence ratio is on record?
**A.** 0.969

**Q.** For TGAGTATGAG, which switch fluorescence ratio is on record?
**A.** 1.06

**Q.** With TGAGTCCATC as the sequence, how does the switch fluorescence ratio read?
**A.** 0.986

**Q.** Which switch fluorescence ratio does the source give for TGAGTGACAG here?
**A.** 1.03

**Q.** How did the switch fluorescence ratio turn out when TGAGTGAGAA was run?
**A.** 0.959

**Q.** Which switch fluorescence ratio does the source give for TGAGTGATCG here?
**A.** 1

**Q.** TGAGTGTATG was tested. Which switch fluorescence ratio did it give?
**A.** 0.995

**Q.** How did the switch fluorescence ratio turn out when TGAGTGTGGC was run?
**A.** 1.1

**Q.** With TGAGTGTTCC as the sequence, how does the switch fluorescence ratio read?
**A.** 1.01

**Q.** TGAGTTAAA was tested. Which switch fluorescence ratio did it give?
**A.** 1.01

**Q.** TGAGTTAGAA was tested. Which switch fluorescence ratio did it give?
**A.** 0.986

**Q.** How did the switch fluorescence ratio turn out when TGAGTTCACT was run?
**A.** 1

**Q.** With TGAGTTGACA as the sequence, how does the switch fluorescence ratio read?
**A.** 1.02

**Q.** How did the switch fluorescence ratio turn out when TGAGTTGGCA was run?
**A.** 1.02

**Q.** With TGATAACAAT as the sequence, how does the switch fluorescence ratio read?
**A.** 0.988

**Q.** How did the switch fluorescence ratio turn out when TGATAAGTTT was run?
**A.** 0.966

**Q.** Which switch fluorescence ratio does the source give for TGATACCACT here?
**A.** 1.05

**Q.** Which switch fluorescence ratio does the source give for TGATACCAGT here?
**A.** 1.03

**Q.** TGATACGACT was tested. Which switch fluorescence ratio did it give?
**A.** 1.05

**Q.** For TGATACGCT, which switch fluorescence ratio is on record?
**A.** 1.11

**Q.** How did the switch fluorescence ratio turn out when TGATACTGCG was run?
**A.** 0.982

**Q.** Which switch fluorescence ratio does the source give for TGATAGGAGT here?
**A.** 0.99

**Q.** With TGATAGTATT as the sequence, how does the switch fluorescence ratio read?
**A.** 1.04

**Q.** How did the switch fluorescence ratio turn out when TGATATAAGT was run?
**A.** 1.04

**Q.** With TGATATAATC as the sequence, how does the switch fluorescence ratio read?
**A.** 0.979

**Q.** Which switch fluorescence ratio does the source give for TGATATGGTG here?
**A.** 0.985

**Q.** For TGATATTTCC, which switch fluorescence ratio is on record?
**A.** 1.06

**Q.** For TGATCATGCA, which switch fluorescence ratio is on record?
**A.** 1.04

**Q.** TGATCATTTC was tested. Which switch fluorescence ratio did it give?
**A.** 1.04

**Q.** How did the switch fluorescence ratio turn out when TGATCCCCCC was run?
**A.** 1.09

**Q.** How did the switch fluorescence ratio turn out when TGATCCGGCG was run?
**A.** 0.964

**Q.** With TGATCGGATG as the sequence, how does the switch fluorescence ratio read?
**A.** 0.951

**Q.** For TGATCGGTGC, which switch fluorescence ratio is on record?
**A.** 1.16

**Q.** How did the switch fluorescence ratio turn out when TGATCGTTT was run?
**A.** 0.995

**Q.** With TGATCTAGGG as the sequence, how does the switch fluorescence ratio read?
**A.** 1.02

**Q.** For TGATCTGAGG, which switch fluorescence ratio is on record?
**A.** 1.01

**Q.** For TGATCTGAGT, which switch fluorescence ratio is on record?
**A.** 1.15

**Q.** With TGATCTGGTG as the sequence, how does the switch fluorescence ratio read?
**A.** 1.03

**Q.** TGATCTTCG was tested. Which switch fluorescence ratio did it give?
**A.** 1.02

**Q.** For TGATCTTGAC, which switch fluorescence ratio is on record?
**A.** 1.01

**Q.** How did the switch fluorescence ratio turn out when TGATGACA was run?
**A.** 1

**Q.** How did the switch fluorescence ratio turn out when TGATGCTATA was run?
**A.** 0.994

**Q.** TGATGCTATG was tested. Which switch fluorescence ratio did it give?
**A.** 0.974

**Q.** TGATGGACTG was tested. Which switch fluorescence ratio did it give?
**A.** 0.934

**Q.** How did the switch fluorescence ratio turn out when TGATGGAGAA was run?
**A.** 0.988

**Q.** Which switch fluorescence ratio does the source give for TGATGGCTAT here?
**A.** 0.948

**Q.** For TGATGGCTCT, which switch fluorescence ratio is on record?
**A.** 1.02

**Q.** Which switch fluorescence ratio does the source give for TGATGGGAGG here?
**A.** 1.02

**Q.** For TGATGGTTGA, which switch fluorescence ratio is on record?
**A.** 0.991

**Q.** For TGATGGTTGC, which switch fluorescence ratio is on record?
**A.** 0.978

**Q.** For TGATTAAATG, which switch fluorescence ratio is on record?
**A.** 1.07

**Q.** Which switch fluorescence ratio does the source give for TGATTAACAT here?
**A.** 0.958

**Q.** For TGATTATAAG, which switch fluorescence ratio is on record?
**A.** 0.953

**Q.** With TGATTGGCGT as the sequence, how does the switch fluorescence ratio read?
**A.** 1.01

**Q.** For TGATTTCATA, which switch fluorescence ratio is on record?
**A.** 1.01

**Q.** For TGATTTGGCG, which switch fluorescence ratio is on record?
**A.** 1.06

**Q.** For TGATTTTAAT, which switch fluorescence ratio is on record?
**A.** 1.05

**Q.** Which switch fluorescence ratio does the source give for TGCAAAATCG here?
**A.** 1

**Q.** Which switch fluorescence ratio does the source give for TGCAAACAGT here?
**A.** 1

**Q.** For TGCAACCGGG, which switch fluorescence ratio is on record?
**A.** 1.07

**Q.** For TGCAACGACT, which switch fluorescence ratio is on record?
**A.** 1.06
